Molecules are shown by their SMILES.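 Following 48 hours of exposure in 96-well plates, responses at five concentrations were used to interpolate endpoints linearly. GI50 is the concentration that inhibits growth by half.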 Active and inactive are the calls of the source. Rule as the data show it: active = GI50 up to about 1.1 µM and inactive = higher. Some results are limits rather than exact numbers.

In the assay the test system is NCI-H322M. The assay is described as follows: NCI-60 cell line screen, 48 h.
On to `COc1ccc(/N=C/c2ccc(N(CCC#N)S(=O)(=O)c3ccccc3)cc2)cc1`, for which the GI50 is inactive: > 100 µM.

`Oc1ccccc1CNCc1ccccc1O`: the GI50 is inactive: > 100 µM.

For the compound `CN(C)CCNc1ccc2ncn3c4ccc(O)cc4c(=O)c1c23`, the GI50 was inactive: 1.37 µM.

Consider `c1ccc(CCN2CCCCCC2)nc1`, for which the GI50 was inactive: > 100 µM.

Regarding `COC1CC(C)(NC(C)=O)C2OC(c3ccccc3)OCC2O1` (centres undefined), the GI50 is inactive: > 100 µM.

As to `CN(C)CC1CCCC/C1=N/OC(=O)c1ccc(Cl)c(Cl)c1` (centres undefined), the GI50 is inactive: > 100 µM.

Consider `C[C@@H]1C(=O)O[C@H]1[C@H](O)CO`, for which the GI50 is inactive: > 100 µM.

Take `N#Cc1cc(NC(=O)c2ccccc2)c(=O)n2c1[nH]c1ccccc12`: the GI50 was inactive: 30.9 µM.

For `Nc1ccc2c(c1)CC1c3ccccc3C(C2)c2ccccc21`, the GI50 was inactive: > 100 µM.

In the case of `O=c1[nH]nc(-c2ccccc2)n1/N=C/c1c(O)ccc2ccccc12`, the GI50 is inactive: 40 µM.

Consider `CC1C2=CC=C(O2)C(C)(C)C2=CC=C(O2)C(C)(C)C2=CC=C(O2)C(C)(C)C2=CC=C1O2`, for which the GI50 is inactive: > 100 µM.

With `CCC(=O)NC(Nc1cccc(F)c1)(C(F)(F)F)C(F)(F)F`, the GI50 was inactive: > 100 µM.

On to `Cn1c2ccccc2n2c3nc4ccccc4nc3c(C#N)c12`, for which the GI50 was inactive: 98.4 µM.

With `Cc1cc(O)nc(NN2C(Cl)C(=O)C2c2ccccc2O)n1` (centres undefined), the GI50 was inactive: 3.75 µM.

Take `COC(=O)CCc1ccc2c(c1)CC1(C2)Cc2ccc3c(c2C1)CCC3` (centres undefined): the GI50 is inactive: > 100 µM.

Regarding `O=C(c1ccc(Cl)c(Cl)c1)N(C(=S)OC12CC3CC(CC(C3)C1)C2)c1ccccc1`, the GI50 is inactive: 40.2 µM.

`CC(C)Oc1cccc(N2C(NCCc3c[nH]c4ccccc34)=Nc3ccncc3S2(=O)=O)c1`: the GI50 is inactive: 84.7 µM.

With `CCOC(=O)C1=C(N)N2C(=N[C@H]3CCCC[C@@H]32)N=C1`, the GI50 was inactive: > 100 µM.

Regarding `CC1=C(C(=O)CC(=O)C(=O)Nc2cccc(Cl)c2C)Sc2ccccc2N1`, the GI50 is inactive: > 100 µM.

As for `C/C=C/[C@@H]1O[C@H](CC#C[Si](C)(C)C)[C@@]2(C=O)C(C)=CC[C@H](C(C)C)[C@@H]12`, the GI50 is inactive: 43.4 µM.

As for `O=C1c2ccccc2N(O)C1(c1ccccc1)C1CCCC=C1N1CCOCC1` (centres undefined), the GI50 was inactive: > 100 µM.

In the case of `C=CC(C)(C)c1cc([C@@H]2COc3cc(O)ccc3C2=O)c(O)c(OC)c1OC`, the GI50 is inactive: 21.8 µM.

Regarding `O=C1CCCC(=O)N1n1c(Cc2ccc(Cl)cc2)n[nH]c1=O`, the GI50 was inactive: > 100 µM.

Regarding `COC(=O)C12C34C=CC5(CCC6(C=CC1(CC3)O6)C52C(=O)OC)O4` (centres undefined), the GI50 was inactive: > 100 µM.

As for `CC1(C)OCC2OC3([C@H]4OC(C)(C)O[C@@H]4CO)OC(C)(C)OC3C2O1` (some centres undefined), the GI50 is inactive: > 100 µM.

As to `NC(=O)C(=Cc1ccc(CP(=O)(O)O)cc1)C(N)=O`, the GI50 was inactive: > 100 µM.

`CN(C)CCCN1C(=S)N(CCCN(C)C)c2c3cc(O)ccc3nc3c([N+](=O)[O-])ccc1c23`: the GI50 was inactive: 4.57 µM.

For the compound `COc1ccc2c(c1)[C@@]13CCCC[C@H]1[C@@H](C2)N(C)CC3=O`, the GI50 was inactive: 43 µM.

Consider `COc1ccc(C(=O)/C=C/c2ccc(OCC(=N)N)cc2)cc1`, for which the GI50 was inactive: 14.5 µM.

As to `CNc1nnnn1C1OC(CO)C(O)C1O` (centres undefined), the GI50 is inactive: > 100 µM.

As to `N/N=C(\c1nc2ccc(Cl)cc2nc1O)C(O)c1ccc(Cl)c(Cl)c1` (centres undefined), the GI50 was inactive: > 100 µM.

For `C[C@H]1CC[P+](C)(c2ccccc2)C1` (some centres undefined), the GI50 was inactive: > 100 µM.

As for `Nc1ccc2nc(N)n[n+]([O-])c2c1`, the GI50 was inactive: > 100 µM.

With `c1csc(-c2ccc(-c3cccc4nsnc34)s2)c1`, the GI50 is inactive: > 100 µM.

On to `CCCCC(/C=N/NC(=N)N)CC.Cc1cc(O)c(C(C)C)cc1S(=O)(=O)O`, for which the GI50 is inactive: > 100 µM.

Turning to `O=C(CCC/C(CC(=O)c1ccc(Br)cc1)=N\O)Nc1ccccc1`, the GI50 was inactive: > 100 µM.

Turning to `COc1ccc2c(c1)c1c3c(ccc4ncn2c43)N(CCO)CCN=1`, the GI50 was active: 0.209 µM.

With `CCCCSN1C(=O)c2ccccc2C1=S`, the GI50 is inactive: > 100 µM.

Turning to `COc1ccc2c(c1)C(CCN)C(=O)N2` (centres undefined), the GI50 was inactive: > 100 µM.

As to `O=C(Nc1nc2ccccc2n1Cc1ccc(Cl)cc1)NC12CC3CC(CC(C3)C1)C2`, the GI50 was inactive: 27.6 µM.

On to `Cc1ccc(-c2cc(-c3ccco3)c(C#N)c(=O)n2C2OC(OC(=O)c3ccccc3)C(OC(=O)c3ccccc3)C2OC(=O)c2ccccc2)cc1` (centres undefined), for which the GI50 was inactive: > 100 µM.

With `O=S(=O)(O)c1cc(O)c(/N=N\C2S(=O)(=O)OCCOS2(=O)=O)c2ccccc12`, the GI50 was inactive: > 100 µM.

Take `COc1ccc(CCc2ccc3c(c2)OCO3)cc1`: the GI50 is inactive: 92.5 µM.

For the compound `CCOC(=O)c1sc2c(c1OC(=O)c1ccco1)c(=O)n(-c1ccccc1)c(=S)n2-c1ccccc1`, the GI50 is inactive: 46.1 µM.

For the compound `O=C([O-])C1([n+]2c(-c3ccccc3)cc(-c3ccccc3)cc2-c2ccccc2)CC1`, the GI50 is inactive: > 100 µM.

With `COc1ccccc1NC(=O)C1=C(C)NC(C)=C(C(=O)Nc2ccccc2OC)C1c1ccc(C2C(C(=O)Nc3ccccc3OC)=C(C)NC(C)=C2C(=O)Nc2ccccc2OC)cc1`, the GI50 was inactive: 3.23 µM.

As for `COc1ccc2c(c1)OCC1Cc3cc4c(cc3OC21)OCO4` (centres undefined), the GI50 is inactive: 85.7 µM.

`Cc1c2c(n(CC(c3ccccc3)c3ccccc3)c1C)NN=C(C#N)S2(=O)=O`: the GI50 was inactive: > 100 µM.

As to `c1cncc(O[Si](Oc2cccnc2)(Oc2cccnc2)Oc2cccnc2)c1`, the GI50 was inactive: > 100 µM.

Turning to `O=C(Cn1nc(Br)c(Br)c1Br)c1ccccc1`, the GI50 is inactive: 30.1 µM.

For the compound `Cc1cc2c3ccccc3[nH]c2c2ccnc(C)c12`, the GI50 was inactive: 13.7 µM.

Consider `CCCC(O)[C@@H](O)c1ccc2c(c1O)C(=O)c1c(OC)cccc1C2=O` (some centres undefined), for which the GI50 was inactive: 39.8 µM.

Regarding `O=C1/C(=C/c2cccc(F)c2)CCCc2ccccc21`, the GI50 is inactive: 19.5 µM.

In the case of `CC(=O)Oc1ccc(/C=C/C(=O)O[C@H]2CCCC[C@@H]2OC(=O)/C=C/c2ccc(OC(C)=O)c(OC(C)=O)c2)cc1OC(C)=O`, the GI50 was inactive: 17.5 µM.

As to `c1ccc([P+](Cc2ccc(C[P+](c3ccccc3)(c3ccccc3)c3ccccc3)cc2)(c2ccccc2)c2ccccc2)cc1`, the GI50 was inactive: > 100 µM.

Regarding `CN(C)CCN1Nc2c3ccccc3nc3c(C(=O)NCCCN(C)CCCNC(=O)c4ccc5c6c(c7ccccc7nc46)NN5CCN(C)C)ccc1c23`, the GI50 is active: < 0.01 µM.

Take `CCCNC1=Nc2ccccc2[C@@H]2N(C)c3ccccc3C(C)C[C@]12C` (some centres undefined): the GI50 is inactive: 20.8 µM.

For the compound `CCN(CC)CCCOc1cc2c(cc1OC)C(=O)N1CCC[C@H]1C=N2`, the GI50 was inactive: > 100 µM.

Consider `O=c1c(Cc2ccccc2Cc2c(O)oc3ccccc3c2=O)c(O)oc2ccccc12`, for which the GI50 was inactive: > 100 µM.

These data come from ChEMBL document CHEMBL1201862, “PubChem BioAssay data set” (2004).
